Assay results from the supplement of paper PMC11417369.
Some of the results follow.

test system: PfAP2-HC AP2 domain (GST-tagged); assay: gcPBM binding intensity (ln(normalized median fluorescence intensity)); higher = stronger DNA binding
Procedure, shortened: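 An Agilent 4 × 180k array of primer-extended double-stranded 36-bp intergenic genomic probes, with negative controls, was incubated for 1 h with GST-tagged P. falciparum DNA-binding domains expressed in E. coli. Alexa488 anti-GST antibody detected bound protein, scanned at 488 nm. Binding intensity is the highest Masliner-normalised natural-log median intensity across replicate spots of either probe orientation.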

Going from “TACTTCATATAATTAGCACACAATAATTTCTCATTT [CACACA_site2872]” to “TGTGTATTATAAACATGTACATAAAAATACGATATT [XGTACX_site3643]”, the “gcPBM binding intensity (ln)” value falls from 9.82 to 9.76.

First: CGCACTAAAAAACACACACACACACCCATATATATA [CACACA_site4152]
Second: AAAAAAAAATAATATACACACTCCAATATAAAAAAT [CACACA_site3958]
The “gcPBM binding intensity (ln)” value of the first is higher: 11 for the first, 10.5 for the second.

Going from “AATGATGTTGTATTGTTTCGATATAACATCTAATTT [GTGCAC_negctrl_site309]” to “TTTTTTAAAATAATAGGTACACATAAAAAAAAAAAA [XGTACX_site2517]”, the “gcPBM binding intensity (ln)” value rises from 9.46 to 9.48.

First: AAGGATTATTTTAATCGTACATGTGTAAATAATATA [XGTACX_site6177]
Second: TTTTTTCATTTTTTATTTTTTTATTTTTTACATATT [GTGCAC_negctrl_site137]
The “gcPBM binding intensity (ln)” value of the first is lower: 9.67 for the first, 9.73 for the second.

First: TATATATATAGACACACACACATATAAATAAATAAA [CACACA_site444]
Second: CATACATACATACATACACACATATATATATATATG [CACACA_site1995]
The “gcPBM binding intensity (ln)” value of the first is higher: 10.4 for the first, 10 for the second.

Going from “TTATTTATTTTCATATGTACTTATTTATAGAGGTTG [XGTACX_site5599]” to ATATAATAACAAAAGGTGCGCATTAAGACAAAAAAA, the “gcPBM binding intensity (ln)” value rises from 9.58 to 10.

Going from “TTTTTCCCCCTTTTTTTGATTTTTATCTTAATTCTA [TGCATGCA_negctrl_site287]” to “TATTATATTGTTCATTTACACTTTCATTTTAAAAAA [CACACA_negctrl_site260]”, the “gcPBM binding intensity (ln)” value falls from 9.78 to 9.56.

First: ATATAATAAAATTAATGTACATATATGTATTATATA [XGTACX_site3283]
Second: TTTCATATATATGAAACACACAAAGGAAAAAAAATT [CACACA_site4144]
The “gcPBM binding intensity (ln)” value of the first is higher: 9.81 for the first, 9.76 for the second.

Going from “AACATAATCTCATATACACACAAAAATATTGAAATA [CACACA_site7085]” to “AAAAAAAAAAAACACACACACATAGACCTCCAATAG [CACACA_site3562]”, the “gcPBM binding intensity (ln)” value rises from 9.86 to 10.3.

Compared with “ACAAGTTTATTTGTTGCACACATATAAGTAGAGAAA [CACACA_site8994]”, “GCTCATATGACAACAACACACAAAAAAATAAAATGA [CACACA_site714]” is higher in “gcPBM binding intensity (ln)” value: 9.78 for the first, 9.88 for the second.

First: ATATTTTGTTATGTAGATGTTGGTAGGAATTTTGGT [CACACA_negctrl_site1104]
Second: AATAAATAAATAAATAAAACAAAGGGATTACATACA [TGCATGCA_negctrl_site513]
The “gcPBM binding intensity (ln)” value of the first is lower: 9.72 for the first, 9.88 for the second.

Going from “CACAACATATATATATATATATATATATATATGTGT [CACACA_negctrl_site28]” to “TTAAAAAAATATTGAAGTACACACATTATAAACTTT [XGTACX_site3548]”, the “gcPBM binding intensity (ln)” value rises from 9.39 to 9.72.
